# Measured values from publication PMC9911399, “Two distinct binding modes provide the RNA-binding protein RbFox with extraordinary sequence specificity”.
# Numbering of substitutions follows the chain as printed; changes in the protein carry UniProt numbers. The list shows a part of the results.
# T1: RBFOX1 RRM (Homo sapiens, UniProt Q9NWB1 109-208)
# T1 sequence: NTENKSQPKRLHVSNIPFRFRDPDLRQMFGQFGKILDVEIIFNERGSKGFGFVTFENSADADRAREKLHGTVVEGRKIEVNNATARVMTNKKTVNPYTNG
# B1: UGCCAGU (DNA:RNA)
# RNA: GGGAGACCGGAAUUCAGAUUGUCCUGCCAGUUUAAAUCCCGUCGUAGCCACCA
# DNA 1: CAATCTGAATTCCGGTCTCCC
# DNA 2: TGGTGGCTACGACGGGATT
# B2: UAUUUAU (DNA:RNA)
# RNA: B1 RNA with G26A, C27U, C28U, A29U, G30A
# DNA 1: CAATCTGAATTCCGGTCTCCC
# DNA 2: TGGTGGCTACGACGGGATT
# B3: GUUAUGU (DNA:RNA)
# RNA: B1 RNA with U25G, G26U, C27U, C28A, A29U
# DNA 1: CAATCTGAATTCCGGTCTCCC
# DNA 2: TGGTGGCTACGACGGGATT
# B4: CCUCAGG (DNA:RNA)
# RNA: B1 RNA with U25C, G26C, C27U, U31G
# DNA 1: CAATCTGAATTCCGGTCTCCC
# DNA 2: TGGTGGCTACGACGGGATT
# B5: AAGCUCU (DNA:RNA)
# RNA: B1 RNA with U25A, G26A, C27G, A29U, G30C
# DNA 1: CAATCTGAATTCCGGTCTCCC
# DNA 2: TGGTGGCTACGACGGGATT
# B6: CAUAGGU (DNA:RNA)
# RNA: B1 RNA with U25C, G26A, C27U, C28A, A29G
# DNA 1: CAATCTGAATTCCGGTCTCCC
# DNA 2: TGGTGGCTACGACGGGATT
# B7: AUAUGAC (DNA:RNA)
# RNA: GGGAGACCGGAAUUCAGAUUGUCCAUAUGACUUAAAUCCCGUCGUAGCCACCA
# DNA 1: CAATCTGAATTCCGGTCTCCC
# DNA 2: TGGTGGCTACGACGGGATT
# B8: GCUAAGC (DNA:RNA)
# RNA: B1 RNA with U25G, G26C, C27U, C28A, U31C
# DNA 1: CAATCTGAATTCCGGTCTCCC
# DNA 2: TGGTGGCTACGACGGGATT
# B9: UGAUUAA (DNA:RNA)
# RNA: B7 RNA with A25U, U26G, G29U, C31A
# DNA 1: CAATCTGAATTCCGGTCTCCC
# DNA 2: TGGTGGCTACGACGGGATT
# B10: AUAGGUU (DNA:RNA)
# RNA: B7 RNA with U28G, A30U, C31U
# DNA 1: CAATCTGAATTCCGGTCTCCC
# DNA 2: TGGTGGCTACGACGGGATT
# B11: UCAUGUA (DNA:RNA)
# RNA: B7 RNA with A25U, U26C, A30U, C31A
# DNA 1: CAATCTGAATTCCGGTCTCCC
# DNA 2: TGGTGGCTACGACGGGATT
# B12: CCUAAUU (DNA:RNA)
# RNA: B1 RNA with U25C, G26C, C27U, C28A, G30U
# DNA 1: CAATCTGAATTCCGGTCTCCC
# DNA 2: TGGTGGCTACGACGGGATT
# B13: UCCAUCA (DNA:RNA)
# RNA: B1 RNA with G26C, C28A, A29U, G30C, U31A
# DNA 1: CAATCTGAATTCCGGTCTCCC
# DNA 2: TGGTGGCTACGACGGGATT
# B14: CUAAGUU (DNA:RNA)
# RNA: B7 RNA with A25C, U28A, A30U, C31U
# DNA 1: CAATCTGAATTCCGGTCTCCC
# DNA 2: TGGTGGCTACGACGGGATT
# B15: UAUUUAC (DNA:RNA)
# RNA: B7 RNA with A25U, U26A, A27U, G29U
# DNA 1: CAATCTGAATTCCGGTCTCCC
# DNA 2: TGGTGGCTACGACGGGATT
# B16: ACUGCCC (DNA:RNA)
# RNA: B7 RNA with U26C, A27U, U28G, G29C, A30C
# DNA 1: CAATCTGAATTCCGGTCTCCC
# DNA 2: TGGTGGCTACGACGGGATT
# B17: ACUAGAC (DNA:RNA)
# RNA: B7 RNA with U26C, A27U, U28A
# DNA 1: CAATCTGAATTCCGGTCTCCC
# DNA 2: TGGTGGCTACGACGGGATT
# B18: CAGCACC (DNA:RNA)
# RNA: B1 RNA with U25C, G26A, C27G, G30C, U31C
# DNA 1: CAATCTGAATTCCGGTCTCCC
# DNA 2: TGGTGGCTACGACGGGATT
# B19: UCAUUUG (DNA:RNA)
# RNA: B7 RNA with A25U, U26C, G29U, A30U, C31G
# DNA 1: CAATCTGAATTCCGGTCTCCC
# DNA 2: TGGTGGCTACGACGGGATT
# B20: CUUAGCA (DNA:RNA)
# RNA: B7 RNA with A25C, A27U, U28A, A30C, C31A
# DNA 1: CAATCTGAATTCCGGTCTCCC
# DNA 2: TGGTGGCTACGACGGGATT
# Target: T1, RBFOX1 RRM
# Assay: EMSA; HiTS-Eq, 1 nM pool, 10 min; buffer printed only for the single-RNA assays: 10 mM Tris pH 7.5, 150 mM NaCl, 3.4 mM EDTA, 0.001% NP-40, 30 C
# Details: tags: His6 N-terminal (pET28a); label: 5' 32P
# Procedure, shortened: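 A pool of RNA with 7 randomized nucleotides, 5′-radiolabelled and with DNA-annealed flanks, was equilibrated at 1 nM for 10 min in 50 µL with purified RbFox RRM, wild type or mutant, across increasing protein concentrations. Free RNA was separated by 8% native PAGE, excised, reverse-transcribed, barcoded by PCR and sequenced. Relative association constants were obtained from read-count changes of each RNA species versus the control reaction and normalised to the cognate motif.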
row,Binder,binding signal
1,B1,0.0241 KA relative to UGCAUGU
2,B2,0.00778 KA relative to UGCAUGU
3,B3,0.0144 KA relative to UGCAUGU
4,B4,0.0146 KA relative to UGCAUGU
5,B5,0.00449 KA relative to UGCAUGU
6,B6,0.00937 KA relative to UGCAUGU
7,B7,0.00483 KA relative to UGCAUGU
8,B8,0.0139 KA relative to UGCAUGU
9,B9,0.00933 KA relative to UGCAUGU
10,B10,0.00745 KA relative to UGCAUGU
11,B11,0.00516 KA relative to UGCAUGU
12,B12,0.00209 KA relative to UGCAUGU
13,B13,0.00185 KA relative to UGCAUGU
14,B14,0.0066 KA relative to UGCAUGU
15,B15,0.0112 KA relative to UGCAUGU
16,B16,0.00841 KA relative to UGCAUGU
17,B17,0.00353 KA relative to UGCAUGU
18,B18,0.00578 KA relative to UGCAUGU
19,B19,0.0136 KA relative to UGCAUGU
20,B20,0.00821 KA relative to UGCAUGU
